Reference: PMC4336329 (PLoS ONE, 2015)
Among all 310,000 compounds or so, about 2,200 (0.71%) showed an effect of 50% or more. Effects have a minus sign here. The list shows a part of the results.

target: human ether-à-go-go-related gene (hERG) potassium channel (human, UniProt Q12809); test: primary screen, population patch clamp on CHO cells stably expressing hERG
Sequence (Q12809 whole entry, looked up): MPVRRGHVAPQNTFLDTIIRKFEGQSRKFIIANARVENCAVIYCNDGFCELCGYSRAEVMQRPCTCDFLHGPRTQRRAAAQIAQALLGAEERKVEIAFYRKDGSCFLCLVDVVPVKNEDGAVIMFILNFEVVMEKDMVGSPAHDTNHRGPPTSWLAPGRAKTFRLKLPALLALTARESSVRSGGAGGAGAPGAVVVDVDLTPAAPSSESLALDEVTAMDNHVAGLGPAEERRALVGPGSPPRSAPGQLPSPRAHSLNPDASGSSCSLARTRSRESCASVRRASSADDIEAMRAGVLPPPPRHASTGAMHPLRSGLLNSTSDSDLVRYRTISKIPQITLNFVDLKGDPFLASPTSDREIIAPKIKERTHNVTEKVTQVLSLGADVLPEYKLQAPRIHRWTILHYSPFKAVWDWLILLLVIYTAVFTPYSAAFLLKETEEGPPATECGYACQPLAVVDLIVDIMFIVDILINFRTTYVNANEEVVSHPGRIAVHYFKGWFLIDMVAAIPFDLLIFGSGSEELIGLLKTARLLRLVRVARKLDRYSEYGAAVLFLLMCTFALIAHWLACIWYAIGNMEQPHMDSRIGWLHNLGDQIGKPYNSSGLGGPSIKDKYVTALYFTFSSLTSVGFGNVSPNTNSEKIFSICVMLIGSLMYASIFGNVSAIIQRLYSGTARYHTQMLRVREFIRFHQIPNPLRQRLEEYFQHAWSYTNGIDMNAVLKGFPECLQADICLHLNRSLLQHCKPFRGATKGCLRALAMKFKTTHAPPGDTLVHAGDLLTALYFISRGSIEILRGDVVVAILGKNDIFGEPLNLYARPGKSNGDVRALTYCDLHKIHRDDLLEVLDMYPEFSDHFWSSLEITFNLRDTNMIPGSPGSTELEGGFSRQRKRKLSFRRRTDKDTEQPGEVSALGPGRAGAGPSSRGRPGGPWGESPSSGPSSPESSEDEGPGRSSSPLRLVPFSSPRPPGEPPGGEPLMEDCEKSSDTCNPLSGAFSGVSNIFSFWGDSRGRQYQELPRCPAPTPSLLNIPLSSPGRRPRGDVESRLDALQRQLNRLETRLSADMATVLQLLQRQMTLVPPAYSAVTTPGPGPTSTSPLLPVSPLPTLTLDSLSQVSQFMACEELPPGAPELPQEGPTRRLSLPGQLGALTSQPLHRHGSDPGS

| SMILES | hERG current change (%, negative = inhibition) at 1uM [%] |
| --- | --- |
| CCOC(=O)C1(CCc2ccccc2)CCN(Cc2cnc(N(C)C)s2)CC1 | -86.4 |
| O=C(CC(NC(=O)c1ccccc1)c1ccccc1)Nc1cccc2ccccc12 (centres unmarked) | 10.6 |
| O=C(NNC(=O)c1ccc2ccccc2c1O)c1ccccc1Cl | 4.54 |
| O=C(Nc1ccccc1C(=O)N1CCN(Cc2ccccc2)CC1)c1ccccc1 | 9.2 |
| CC1(C)Oc2ccc(/C=C/C(=O)N3CCOCC3)c(O)c2C(N2CCOCC2)C1O (centres unmarked) | 10.6 |
| O=C(O)C1Nc2ccc(C(F)(F)F)cc2C2OCCC12 (centres unmarked) | 10.7 |
| CCOc1ccc(-c2nc(CSCC(=O)NCc3ccco3)c(C)o2)cc1 | 2.04 |
| CCOC(=O)C1(C)/C(=N/Nc2ccccc2OC)C(=O)C(=O)N1c1ccccc1 (centres unmarked) | 14.2 |
| COc1cccc(C2c3c(oc4cc(C)c(C)cc4c3=O)C(=O)N2CCCN(C)C)c1 (centres unmarked) | -3.67 |
| Cc1ccc(NC(=O)Cn2cnc([N+](=O)[O-])c2)cc1C | 8.13 |
| Cc1noc(C)c1COC(=O)CCC(=O)c1ccc(F)cc1 | 15.4 |
| CCNc1ccc(Br)cc(C(=O)/C=C/c2c(Cl)cccc2Cl)c1=O | 2.19 |
| C/C(=N\Nc1nnc(-c2ccccc2)c(-c2ccccc2)n1)c1cccc([N+](=O)[O-])c1 | 3.77 |
| CCCOc1ccc(-c2c(C(=O)N/N=C(\C)c3ccncc3)nnn2-c2nonc2N)cc1 | 15.7 |
| COc1ccccc1CNC(=O)CN1C(=O)C(C)N(c2ccc(C)cc2)C1=O (centres unmarked) | 6.07 |
| O=S(=O)(NC(=S)NC1CCCCC1)c1cccs1 | 11 |
| CCN1CCN(Cc2ccc(NC(=O)c3ccc(C)c(NC(=O)c4ccno4)c3)cc2C(F)(F)F)CC1 | 9.11 |
| O=C(Nc1ccc(F)cc1)NC1CCCc2ccccc21 (centres unmarked) | 9.98 |
| CC(=O)Nc1ccc(NC(=O)c2ccccc2N(Cc2ccccc2)S(C)(=O)=O)cc1 | 8.42 |

| SMILES | hERG current change (%, negative = inhibition) at 1uM [%] |
| --- | --- |
| Cc1ccccc1-n1nnnc1SCc1csc(-c2ccccc2)n1 | 15.4 |
| COc1cc(C(=O)OCC(=O)NCc2ccco2)cc(OC)c1OC | 6.62 |
| Cc1ccc2cc(CCl)c(Cl)nc2c1 | 5.79 |
| CCOc1cccc(C(=O)Nc2ccc3oc(-c4cccnc4)nc3c2)c1 | 9.72 |
| COc1ccc(OC)c(-c2csc(NC(=O)CSCC(=O)Nc3cc(C)on3)n2)c1 | 19.5 |
| CCn1c(SCc2c(Cl)cccc2Cl)nc2nc3c(cc2c1=O)CCCC3 | 11.2 |
| CCOc1ccc2oc(-c3ccccc3)c(C(N)=O)c2c1 | 12.5 |
| CCOC(=O)CC(=O)c1cc(OC)c(OC)c(OC)c1 | -0.0715 |
| O=C(CCS(=O)(=O)c1cccc2nonc12)Nc1ccc(Br)cc1 | 8.59 |
| Cc1ccn2cc(CCNC(=O)C3CCCCC3)nc2c1 | -2.83 |
| O=c1[nH]c(Cn2nnc(-c3ccccc3)n2)nc2scc(-c3ccccc3)c12 | 13.1 |
| CN1C(=O)C(=Cc2cn(CC#N)c3ccccc23)C(=O)N(C)C1=O | 16.6 |
| Cc1ccc(S(=O)(=O)N(C)c2ccc(OC(=O)c3ccc(N4CCCC4=O)cc3)cc2)cc1 | 12.2 |
| CCN1CCN(Cc2cc3c(cc2[N+](=O)[O-])OCO3)CC1 | 7.07 |
| O=C1CSC(c2cccnc2)N1C1CCCCC1 (centres unmarked) | 1.55 |
| CCN(CC)Cc1nc2c(c(=O)[nH]1)C(CC)(CC)Cc1ccccc1-2 | 6.15 |
| COc1ccc(-c2c(-c3ccc(OC)c(C)c3O)n[nH]c2C)cc1 | 18.3 |
| CCOC(=O)c1sc(NC(=O)c2ccc(=O)[nH]c2)nc1C | 8.54 |
| FC(F)(F)c1cc(-c2cccs2)nc2cc(-c3cccs3)nn12 | 15.5 |

| SMILES | hERG current change (%, negative = inhibition) at 1uM [%] |
| --- | --- |
| CCN(c1ccccc1)S(=O)(=O)c1ccc(Cl)c(NC(=O)COC(=O)c2ccc(O)cc2)c1 | 17.8 |
| O=C(c1cc(COc2ccc(F)cc2Cl)on1)N1CCSCC1 | 7.92 |
| Cc1ccc(C)c(N2CCN(S(=O)(=O)c3c(C)noc3C)CC2)c1 | 10.1 |
| Cc1csc(-c2cnn(-c3ccccc3)c2NC(=O)c2cccc(C(F)(F)F)c2)n1 | 20 |
| CCOC(=O)c1cnc2ccc(OCC)cc2c1N1CCN(C)CC1.Cl | -15.6 |
| CCOC(=O)c1ccc(N=c2sc(C(=O)OC)cc(=O)n2Cc2ccco2)cc1 | 17.7 |
| COc1ccccc1-c1c(C)oc2cc(OC(=O)c3ccco3)ccc2c1=O | 17.6 |
| O=C(COc1cccc2ccccc12)NNC(=O)C1CCCO1 (centres unmarked) | 1.95 |
| CCO[C@@H]1OC(C(=O)NCc2ccccc2)=C[C@H](C2CC2)[C@H]1CCCO | 2.52 |
| CC(=O)Oc1ccc2c(=O)c(-c3ccccc3)coc2c1 | 3.24 |
| Cc1ccc2nc(SCC(=O)Nc3cc(C)on3)[nH]c2c1 | -2.32 |
| O=C(NC(=S)NCC1CCCO1)c1ccc(Br)o1 (centres unmarked) | 7.95 |
| COc1ccc(-c2cc(C)no2)cc1S(=O)(=O)N(C)c1ccc(C)cc1 | 4.37 |
| Cc1noc(C)c1-c1nnc(-c2ccc(OC(F)(F)F)cc2)o1 | 4.04 |
| NC(=O)c1cccc(-c2noc(-c3ccccc3F)n2)c1 | 2.7 |
| O=C(c1ccccc1)c1cc(F)c(N2CCOCC2)cc1Cl | 12.4 |
| CCOc1ccccc1C1C(C#N)=C(N)Nc2onc(-c3ccccc3)c21 (centres unmarked) | -2.75 |
| Cc1ccc(-n2nc3c(c2NC(=O)c2ccc(F)c(F)c2)CS(=O)(=O)C3)cc1 | 5.26 |
